{"source": "patent US8685954B2", "about": "“Methods and compositions for treating cancer using proteasome inhibitors” (priority 2002, dated 2014)", "key": {"[1]": {"system": "MM cells isolated from a patient who had relapsed following treatment with PS-341", "conditions": "MM cells of patient relapsed after PS-341"}, "[2]": {"system": "MM.1S cells", "test": "Cell adhesion-mediated drug resistance (CAM-DR), MM.1S cells on fibronectin, MTT", "assay_type": "cell-based, Human", "conditions": "doxorubicin 100-200 ng/ml 24 h; wells with versus without fibronectin"}, "[3]": {"system": "MM.1S cells"}}, "note": "Where two headings read alike, the source gives them in different places.", "data": [{"smiles": "COc1cccc2c1C(=O)c1c(O)c3c(c(O)c1C2=O)C[C@@](O)(C(=O)CO)C[C@@H]3O[C@H]1C[C@H](N)[C@H](O)[C@H](C)O1", "note": "[doxorubicin]", "values": [{"measurement": "Sensitivity to doxorubicin monotherapy in vitro", "setting": "[1]", "result": "low sensitivity"}, {"measurement": "Sensitivity of MM.1S cells to doxorubicin with fibronectin", "setting": "[2]", "result": "less sensitive"}, {"measurement": "LD50 for doxorubicin in MM.1S cells", "setting": "[3]; in the absence of PS-341", "result": 150, "unit": "nM"}, {"measurement": "LD50 for doxorubicin in MM.1S cells", "setting": "[3]; in the presence of PS-341 (2 nM)", "result": 26, "unit": "nM"}]}]}
